In all, about 340,000 compounds went through this assay and about 12,000 (3.5%) were called active. This list was built around the results that the source calls inconclusive (neither active nor inactive); the mix of calls is not that of the screen. The call rests on the fitted dose curve; in most records, active means well fitted inhibition curve with a large enough effect; inconclusive means small, poorly fitted or top-dose-only effect, or another doubt; inactive means no such curve, though single readings can be large or run the other way. No potency is given beside an inconclusive call; the fits are too rough.
Assay: qHTS Assay for Inhibitors of Hepatitis C Virus (HCV)
Details: Huh7.5.1 HCVcc-Cre (HCVcc is cell-culture hepatitis C virus) infection, luciferase reporter, 44 h; activity change, negative = inhibition: at 41.8 µM (top of the series) unless noted
In short: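 Compounds are dispensed onto cells plated 4 h earlier at 1,000 per well, with HCVcc-Cre virus (about 0.5 moi) added next. Following 44 h of culture, luminescent signal is measured for 15 sec after 15 min with substrate at room temperature.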
On the % scale 0 is the no-effect control and ±100 the full control effect; potency means the concentration at half of the fitted maximal effect; tags describe the fitted curve by direction and shape.

SMILES | Potency | activity change, negative = inhibition
Cc1ccc2c(Cl)cc(Cl)c(OCC(=O)NC3CCS(=O)(=O)C3)c2n1 (stereo unspecified) | inconclusive [inhibitor, partial curve] | –
CC(C)Cn1c(N)c(C(=O)COC(=O)c2cc(S(=O)(=O)N3CCOCC3)ccc2Br)c(=O)n(C)c1=O | inconclusive [inhibitor, single point] | –
O=C(NCc1ccccc1)C(c1ccc(F)cc1)N(Cc1ccc2c(c1)OCO2)C(=O)Cn1nnc(-c2cccs2)n1 (stereo unspecified) | inconclusive [inhibitor, partial curve] | –
COc1ccc(C2(CNC(=O)c3cc([N+](=O)[O-])cc([N+](=O)[O-])c3)CCCC2)cc1OC | inconclusive [inhibitor, single point] | –
CN(Cc1cccs1)C(=O)c1ccc(Cl)c(S(=O)(=O)N2CCCCCC2)c1 | inconclusive [inhibitor, single point] | –
COc1cc(Cn2c(=O)oc3ccc(C)cc32)ccc1OC(C)C | active: 1.12 µM | –
COc1cc(NC2c3ccccc3C(=O)N2Cc2ccccc2Cl)cc(OC)c1 (stereo unspecified) | inconclusive [inhibitor, single point] | –
O=[N+]([O-])c1ccc(N2CCCCCC2)c([N+](=O)[O-])c1 | inconclusive [inhibitor, single point] | –
Cc1ccc(NC(=O)CN(C)C(=O)CNC(=O)c2ccc3c(c2)OCO3)cc1 | inactive | –
Cc1c(C(=O)c2ccc(Cl)cc2Cl)cnc2cc3c(cc12)OCO3 | active: 10 µM | –
c1ccc(-c2csc(-n3cnnn3)n2)cc1 | inconclusive [inhibitor, single point] | –
O=c1c2ccccc2c2ccccc2c(=O)n1CC1CCCO1 (stereo unspecified) | inactive | –
CCOC(=O)N1CCN(S(=O)(=O)c2ccc(Br)s2)CC1 | inactive | –
Oc1ccc(Br)cc1C=Nc1cccn2cc(-c3ccccc3)nc12 | inactive | –
COc1ccc2nc(/N=C(\N)NC(=O)Nc3ccccc3)nc(C)c2c1 | inconclusive [inhibitor, partial curve] | –
S=c1nc(-c2csc3c2CCCC3)[nH][nH]1 | inactive | –
Cc1ccc(-c2nnc(Nc3ccc(OCC(N)=O)cc3)c3ccccc23)cc1S(N)(=O)=O | inactive | –
NC(=O)c1cc(S(=O)(=O)NCc2cccc(Br)c2)cs1 | inconclusive [inhibitor, single point] | –
Oc1ccc(Cl)cc1-c1cc(-c2cccc(Br)c2)n[nH]1 | active: 11.2 µM | –
Cc1cccc2c1-c1sc(C(=O)NCCCN3CCc4ccccc4C3)cc1CO2 | inconclusive [inhibitor, partial curve] | –
CCOc1ccc(C(=O)O/N=C(\N)c2ccc([N+](=O)[O-])cc2)cc1OCC | inconclusive [inhibitor, single point] | –
Clc1ccc(C(Cn2ccnc2)OCc2c(Cl)cccc2Cl)c(Cl)c1 (stereo unspecified) | inactive | –
Cc1cccc(NC(=O)COc2cccc3c2CCN(Cc2ccccc2)C3=O)c1C | inconclusive [inhibitor, partial curve] | –
Cc1c(C(=O)NC(=S)Nc2ccc(NC(=O)c3cccs3)cc2)cccc1[N+](=O)[O-] | inconclusive [inhibitor, full curve] | –

SMILES | Potency | activity change, negative = inhibition
O=C(NC1CCS(=O)(=O)C1)Oc1ccccc1 (stereo unspecified) | inactive | –
COCCCNC(=O)c1cc(=O)n(Cc2ccc(Cl)cc2)c2ccccc12 | inconclusive [inhibitor, single point] | –
O=C1CCCc2oc3c(cc(NS(=O)(=O)c4ccc5c6c(cccc46)C(=O)N5)c4ccccc43)c21 | inconclusive [inhibitor, single point] | –
CC(=O)COc1ccc2c(-c3cccc([N+](=O)[O-])c3)cc(=O)oc2c1 | inactive | –
CC(C)(C)OC(=O)N[C@H](C(=O)OC(C)(C)C)c1ccccc1 | inconclusive [inhibitor, partial curve] | –
CCCCNc1ccccc1C(=O)OCC(=O)Nc1ccc(S(N)(=O)=O)cc1 | inconclusive [inhibitor, full curve] | –
CC(=O)Nc1ccc(NC(=O)/C=C/c2ccccc2)cc1 | inactive | –
O=C(CN1CCOCC1)N/N=C/c1cc2ccccc2nc1Cl | inactive | –
CCOc1ccc(CNC(=O)c2ccco2)cc1 | inconclusive [inhibitor, single point] | –
CCOC(=O)c1c(-c2ccc(OC)cc2)csc1/N=C/C1=C(O)CCCC1=O | inconclusive [inhibitor, partial curve] | –
CCOc1ccccc1NC(=O)COC(=O)C(Cc1ccccc1)NC(=O)c1ccco1 (stereo unspecified) | inactive | –
CC(NC(=O)C12CC3CC(CC(C3)C1)C2)C(=O)N/N=C/C1=C(N2CCOCC2)C(=C\c2ccccc2)/CC1 (stereo unspecified) | inconclusive [inhibitor, partial curve, poor fit] | –
COc1cccc(N2CC(NS(=O)(=O)c3cccnc3)CC2=O)c1 (stereo unspecified) | inconclusive [inhibitor, single point] | –
Cc1ccc(NC(=O)COc2cccc(C)c2C)cc1S(=O)(=O)N1CCCCCC1 | active: 6.31 µM | –
Cc1oc(-c2ccc(Cl)cc2)nc1CS(=O)CC(=O)NC1CCCCCC1 (stereo unspecified) | inconclusive [inhibitor, single point] | –
O=C1c2ccccc2C(=O)C1(O)O | inconclusive [inhibitor, single point] | –
COc1ccc(C(=O)Nc2ccc(Cl)cc2C(=O)N2CCCC(C)C2)cc1OC (stereo unspecified) | inconclusive [inhibitor, full curve] | –
N#CC(C#N)=Cc1cccnc1 | inactive | –
Cc1ccc(C)c(Cn2c(=O)n(CCC(=O)NCc3ccco3)c(=O)c3sccc32)c1 | inconclusive [inhibitor, single point] | –
Cc1ccc(-n2c(C)cc(C(=O)CSc3nnnn3C)c2C)cc1 | inconclusive [inhibitor, single point] | –
CCCCNC(=S)Nc1ccc(C(F)(F)F)cc1 | inconclusive [inhibitor, single point] | –
Cn1nnc2cc(NC(=O)Nc3cccc(C(F)(F)F)c3)ccc21 | inactive | –
Cc1ccc(S(=O)(=O)CCC(=O)Nc2nc(-c3ccccn3)cs2)cc1 | active: 12.6 µM | –
CCOc1ccccc1NC(=O)c1ccc2c(=O)n3c(nc2c1)CCCCC3 | inactive | –

SMILES | Potency | activity change, negative = inhibition
COCCNC(=S)N1CCN(c2nc3ccccc3s2)CC1 | inconclusive [inhibitor, partial curve] | –
O=C(Nc1ccc(-n2cccn2)cc1)C1CCN(Cc2ccsc2)CC1 | inconclusive [inhibitor, partial curve] | –
O=S(=O)([N-]c1nc2ccccc2nc1-n1cc[n+](Cc2ccccc2)c1)c1ccc(Cl)cc1 | – | inconclusive: -34.7% [inhibitor]
CN(CCNC(=O)C1CCN(S(=O)(=O)c2cnc[nH]2)CC1)Cc1ccccc1 | inconclusive [inhibitor, single point] | –
COc1ccc2nc(NC(=O)CSc3nc4cccnc4n3C)sc2c1 | inconclusive [inhibitor, single point] | –
Cc1ccc(Nc2ncccc2C(=O)NCc2cccs2)c(C)c1 | inconclusive [inhibitor, partial curve] | –
Cc1ccc(-n2nc3c(=O)n(CCCC(=O)NCc4ccc(Cl)cc4)nc(C)c3c2C)cc1 | inactive | –
COCCN(CC(=O)NC1CCCCC1)C(=O)c1csnn1 | inconclusive [inhibitor, single point] | –
Cc1ccc(/C=C/C(=O)NCCc2cccc(Cl)c2)o1 | inactive | –
Cc1ccc(S(=O)(=O)N(C)c2ccc(C(=O)NCc3cccnc3)cc2)cc1 | inactive | –
CCOC(=O)c1c(C)[nH]c(C(=O)COC(=O)c2ccc(O)cc2O)c1C | inconclusive [inhibitor, full curve] | –
COc1ccccc1CNC(=O)C(C)NS(=O)(=O)c1ccc(C)cc1 (stereo unspecified) | inconclusive [inhibitor, single point] | –
O=C(Nc1ccccc1NC(=O)c1c(F)c(F)c(F)c(F)c1F)c1c(F)c(F)c(F)c(F)c1F | inconclusive [inhibitor, single point] | –
O=C(Cc1ccc([N+](=O)[O-])cc1)NCCc1ccc2c(c1)OCO2 | inactive | –
CC(C)(C)OC(=O)NCC12C=CC(O1)C1C(=O)N(Cc3ccccc3)C(=O)C12 (stereo unspecified) | inactive | –
Cc1cc(-c2csc(N)n2)c(C)n1-c1ccccc1 | inconclusive [inhibitor, single point] | –
CCOc1ccc(Nc2nc3ccccc3n3cnnc23)cc1 | inconclusive [inhibitor, single point] | –
O=C(O)c1cccc(NC(=O)C23CC4CC(C2)CC(n2cnc(Cl)n2)(C4)C3)c1 | inactive | –
CC(C)CN1C(=O)c2ccc(NC(=O)c3cccs3)cc2C1=O | inconclusive [inhibitor, partial curve] | –
Cn1c(=O)c2c(nc(N/N=C/c3cccs3)n2Cc2ccccc2)n(C)c1=O | inconclusive [inhibitor, partial curve] | –
COc1ccc(/C=N/NC(=O)c2cccc(Br)c2)cc1Cn1cc(Cl)cn1 | inconclusive [inhibitor, partial curve] | –
Nc1nonc1C(=O)OCC(=O)c1ccc(Cl)cc1 | inactive | –
CC1=C(C#N)C(c2ccccc2)C2=C(N1)c1ccccc1C2=O (stereo unspecified) | inconclusive [inhibitor, partial curve, poor fit] | –
